Assay results as given in the supplement of paper PMC3334620.
Whole data set: some 33,000 sequences, median “E-score (-0.5 to 0.5)” near -0.053, cut for the highest 2% near 0.37. This is one part of the list.

Each sequence was assayed against Hap1 (UniProt P0CE41) (assay: PBM E-score (8-mer binding enrichment) (E-score (-0.5 to 0.5)); higher = stronger / more preferred TF binding; most listed sequences are background and not binding sites). Details: protein concentration: 200 nM; construct: GST-DNA-binding domain.
Method in brief: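 GST-tagged yeast TFs (full-length or DNA-binding domain) were made by PURExpress in vitro transcription/translation and applied at about 100-200 nM to universal all-10-mer Agilent arrays. The arrays were made double-stranded by primer extension, on fresh or once-stripped slides. Bound protein was detected with fluorescent anti-GST, and scans were normalised with masliner. Each ungapped eight-base word, pooled with its reverse complement, received an E-score (modified Wilcoxon-Mann-Whitney statistic) from the Universal PBM Analysis Suite.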

Chain of UniProt P0CE41 (P0CE41 whole entry, the tested form may be a part): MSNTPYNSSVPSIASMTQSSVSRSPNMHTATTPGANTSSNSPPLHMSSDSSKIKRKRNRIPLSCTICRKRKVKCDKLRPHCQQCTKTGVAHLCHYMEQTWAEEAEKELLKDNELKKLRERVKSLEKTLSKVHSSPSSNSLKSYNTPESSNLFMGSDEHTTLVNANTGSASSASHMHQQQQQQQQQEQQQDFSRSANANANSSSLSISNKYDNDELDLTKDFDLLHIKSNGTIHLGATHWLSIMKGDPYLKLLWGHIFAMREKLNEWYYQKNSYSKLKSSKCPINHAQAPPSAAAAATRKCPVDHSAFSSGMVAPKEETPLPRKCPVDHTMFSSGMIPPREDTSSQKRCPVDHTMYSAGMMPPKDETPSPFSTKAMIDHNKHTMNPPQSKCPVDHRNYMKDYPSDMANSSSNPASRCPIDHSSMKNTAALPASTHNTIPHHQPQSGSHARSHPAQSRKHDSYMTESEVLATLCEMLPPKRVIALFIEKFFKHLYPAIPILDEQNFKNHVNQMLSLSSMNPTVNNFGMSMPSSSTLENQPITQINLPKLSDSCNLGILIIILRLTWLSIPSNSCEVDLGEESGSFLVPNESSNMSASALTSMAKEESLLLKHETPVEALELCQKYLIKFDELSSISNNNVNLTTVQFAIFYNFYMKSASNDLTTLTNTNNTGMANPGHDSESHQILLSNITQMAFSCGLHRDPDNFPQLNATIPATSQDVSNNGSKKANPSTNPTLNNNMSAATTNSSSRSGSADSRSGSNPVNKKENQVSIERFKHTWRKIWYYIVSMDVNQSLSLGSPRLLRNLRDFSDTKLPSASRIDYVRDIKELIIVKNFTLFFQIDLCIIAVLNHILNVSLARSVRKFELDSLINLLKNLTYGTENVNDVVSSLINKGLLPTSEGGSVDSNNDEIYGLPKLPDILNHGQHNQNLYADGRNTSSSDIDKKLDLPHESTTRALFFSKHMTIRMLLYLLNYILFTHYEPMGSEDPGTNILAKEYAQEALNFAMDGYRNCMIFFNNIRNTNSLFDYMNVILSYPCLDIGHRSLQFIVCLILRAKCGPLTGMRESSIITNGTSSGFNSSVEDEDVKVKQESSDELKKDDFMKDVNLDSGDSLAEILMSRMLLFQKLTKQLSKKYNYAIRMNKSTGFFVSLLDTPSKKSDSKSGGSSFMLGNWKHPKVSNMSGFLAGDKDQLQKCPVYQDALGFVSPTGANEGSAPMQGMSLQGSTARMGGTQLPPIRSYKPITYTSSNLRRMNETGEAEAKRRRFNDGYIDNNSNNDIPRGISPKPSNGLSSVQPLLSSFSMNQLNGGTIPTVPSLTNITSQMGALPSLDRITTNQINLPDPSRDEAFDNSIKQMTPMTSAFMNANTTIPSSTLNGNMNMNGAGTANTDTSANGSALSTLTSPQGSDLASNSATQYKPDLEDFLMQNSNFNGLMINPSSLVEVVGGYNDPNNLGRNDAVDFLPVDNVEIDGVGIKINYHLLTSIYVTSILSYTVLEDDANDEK

Sequence | PBM E-score
CAATGACC | -0.0236
GCGTGATA | -0.0728
AAAGTGCC | -0.0278
GCTATTGA | -0.00882
CATTGTTC | 0.0428
AATAGCCG | 0.287
ACTTCATA | -0.129
ACAGTGCA | -0.0406
CACGGATA | 0.298
GTTGCTTA | -0.129
AACTTTGC | 0.0892
CGAGTTTA | 0.0759
AACATCCG | 0.361
GCGTGTTA | -0.325
CCACTTTA | -0.00297
CCAAATTA | -0.0906
AAACCGAA | 0.26
CCCTAACG | 0.0906
CCTACACA | -0.135
ACCCATCG | 0.0009
TCAGCTGA | -0.295
ATGAGCAG | -0.214
ACTTTGCG | 0.00819
ACCATCCG | 0.186
ATGCCGGG | 0.217

Sequence | PBM E-score
ACGGTAGA | 0.0522
AGACAACG | 0.0357
CGGATGAG | 0.283
AATTATAC | 0.196
AAAAGAGA | -0.275
AATCCACT | -0.124
GCCTCGCA | -0.0625
CATGTAAG | -0.087
CTAAGGCC | 0.0357
ACGTGTCT | -0.28
CCGAGGAA | 0.297
AGGATTGG | -0.0993
CCCAACCG | 0.0888
CACAAGTA | -0.147
AACCGCTC | 0.0164
AGAGATCG | -0.0743
AGAAGCAA | -0.0121
ACCATCGC | 0.0361
ACTTTTGA | -0.129
ACAATACG | -0.0169
CGACTTCA | 0.0753
ACACACTG | -0.134
ACTGCAAG | -0.331
CTGCCAGC | -0.201
CCAGAGTA | -0.071

Sequence | PBM E-score
CACTTATA | 0.0264
TCTTAGAA | 0.0487
GGAGAGTA | 0.204
GTGTAAAA | -0.0823
CTCCTATC | 0.0794
ATGCGGGA | 0.184
ATTTTAAA | -0.0433
AAGTAGGT | 0.00362
GGTATTGA | 0.145
GCCTTTAC | -0.0548
AATACACT | -0.282
GGTCTATA | -0.109
AGTGCTTA | -0.092
CTTGCCAC | -0.23
GTTGGGCA | -0.082
AGTGGGCC | -0.177
ACAAATAG | -0.0365
CACCCCAA | -0.0996
CCCGTTTA | 0.124
AAATCGTT | -0.225
CCCTGCCA | -0.102
CCAGGCAG | -0.0986
CAGTCAGA | -0.142
CCGGGGGC | 0.284
ACAGAGCT | -0.283

Sequence | PBM E-score
CCGTATAA | 0.218
ACGTTTTA | -0.17
GACTATAC | 0.0197
TACCTTAA | -0.0145
ATCGCCTA | 0.0537
GGGTACCA | -0.265
ACAGAGTA | -0.254
AATAAGGC | -0.111
GAGAAATA | 0.138
ATCCAGAA | -0.131
ATTAAGAA | 0.127
CGGTCGAA | 0.359
GCATTAGC | 0.137
GGACCTCC | 0.0912
ATTCTCCC | 0.0268
CAGTCTGA | -0.28
ATGTTCTG | 0.0378
CCATTCCG | 0.169
TCAAACAA | -0.0623
CTTTGAAC | -0.108
AAGTCAAG | -0.138
CGGATTGC | 0.32
CACTTCAC | -0.146
AGCGCAAC | -0.00913
TGGCACCA | -0.231

Sequence | PBM E-score
CTTATCGC | 0.339
GACCGCAC | 0.073
ACGGTTCC | 0.089
GCAGTCCA | -0.216
ATTGTGGG | -0.0625
AGCGCGAT | 0.126
GCTCCGAC | 0.212
ATCTGGGC | -0.0351
ATTCTGCA | -0.0835
AGACGTTC | -0.0931
ATGCGCCA | -0.093
ACCTAAAG | -0.145
GTCAAGAC | -0.186
CCAAACCG | 0.192
ACGGAACT | 0.326
AGAGATCA | -0.339
CTGTAATC | -0.0658
ATCGAAAT | -0.0185
CAAGTTCG | 0.00671
ATCGACTA | -0.127
TATCAGCA | 0.0209
CAAGATGA | -0.17
TAACGGGA | 0.252
ACCCAAGG | -0.0848
CAAGATAA | -0.0149

Sequence | PBM E-score
ATATGTAA | -0.205
ATAATGGG | 0.109
CGGACGAC | 0.371
ACTCCGTA | 0.244
AGACCAGC | -0.195
AGGGACCC | -0.14
GAGCTACA | -0.0421
CATATATA | 0.0604
CCTGAGAC | -0.114
ACGATCGG | 0.258
CGCCGTTC | 0.163
TCCTTTCA | -0.0699
AGTAAAGC | -0.00459
AACCGCCG | 0.326
AACAGGAC | -0.144
AGACAATG | 0.0262
GTGCAATA | -0.179
AAATGCGC | 0.168
GACCCATA | 0.118
GATAATGA | -0.0504
AACCGTTA | 0.0873
AGGTGTCC | -0.00488
AAGAAAGT | 0.0731
GGTCATCA | -0.136
ACTCACGC | -0.182

Sequence | PBM E-score
CATCGTAA | 0.0182
ACTCTATA | 0.00566
CAACCAAA | -0.0496
AGGGAGAA | -0.0602
AACTCTAC | -0.212
ACAAGTAG | -0.136
CCTCTTAA | -0.0575
CATTGCTA | -0.0797
CCACTACA | -0.207
AGTAAGCC | -0.00454
ATTTCGCA | 0.201
AAGGTCTG | -0.122
CCAATTCG | -0.0334
AGATAAGC | -0.0608
CGTAAGTA | 0.211
CCCAAAGG | -0.222
CTCACATC | -0.163
AAGACGCC | -0.0181
CTAATATA | -0.0706
AGGCCAGG | 0.0462
ATCAAAAG | -0.046
GGCCTACC | 0.0874
